Measurements reported in PubChem BioAssay AID1645887 (National Center for Advancing Translational Sciences (NCATS), 2021).
Where “and” joins values, the source holds several entries; their conditions need not be identical. Equal values may be shown once. Out of some 16,000 compounds screened, about 40 (0.2%) were called active. Inconclusive results (about 1%) are left out. The call rests on the fitted dose curve; in most records, active means well fitted activation curve with a large enough effect; inconclusive means small, poorly fitted or top-dose-only effect, or another doubt; inactive means no such curve, though single readings can be large or run the other way. This is one part of the list. Residues, ends and D or L forms follow the SMILES beside them. *: point of attachment. Cbz = O=C(OCc1ccccc1)*; CH2F = FC*

biological target: Rap guanine nucleotide exchange factor 4 (Homo sapiens) (UniProt Q8WZA2); assay: Validation qHTS for agonist of cAMP-regulated guanine nucleotide exchange factor 4 (EPAC2); details: EPAC2 Rap1B BODIPY-GDP exchange, fluorescence; activation: active compounds read high;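 further: exchange makes BODIPY-GDP fluorescence drop when released from Rap1B; series mostly up to about 150 µM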
Summary of the method: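 Fluorescent exchange assay: 100 nM EPAC2 with 250 nM RAP1B-BODIPY-GDP and 50 uM GDP; compound added, 5 min at room temperature, then read (ex 480/em 540 nm) every 5 min for 30 min. Normalized to 6.5 mM cAMP agonist control.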
On the % scale 0 is the no-effect control and ±100 the full control effect.

Sequence of UniProt Q8WZA2 (Q8WZA2 whole entry, looked up): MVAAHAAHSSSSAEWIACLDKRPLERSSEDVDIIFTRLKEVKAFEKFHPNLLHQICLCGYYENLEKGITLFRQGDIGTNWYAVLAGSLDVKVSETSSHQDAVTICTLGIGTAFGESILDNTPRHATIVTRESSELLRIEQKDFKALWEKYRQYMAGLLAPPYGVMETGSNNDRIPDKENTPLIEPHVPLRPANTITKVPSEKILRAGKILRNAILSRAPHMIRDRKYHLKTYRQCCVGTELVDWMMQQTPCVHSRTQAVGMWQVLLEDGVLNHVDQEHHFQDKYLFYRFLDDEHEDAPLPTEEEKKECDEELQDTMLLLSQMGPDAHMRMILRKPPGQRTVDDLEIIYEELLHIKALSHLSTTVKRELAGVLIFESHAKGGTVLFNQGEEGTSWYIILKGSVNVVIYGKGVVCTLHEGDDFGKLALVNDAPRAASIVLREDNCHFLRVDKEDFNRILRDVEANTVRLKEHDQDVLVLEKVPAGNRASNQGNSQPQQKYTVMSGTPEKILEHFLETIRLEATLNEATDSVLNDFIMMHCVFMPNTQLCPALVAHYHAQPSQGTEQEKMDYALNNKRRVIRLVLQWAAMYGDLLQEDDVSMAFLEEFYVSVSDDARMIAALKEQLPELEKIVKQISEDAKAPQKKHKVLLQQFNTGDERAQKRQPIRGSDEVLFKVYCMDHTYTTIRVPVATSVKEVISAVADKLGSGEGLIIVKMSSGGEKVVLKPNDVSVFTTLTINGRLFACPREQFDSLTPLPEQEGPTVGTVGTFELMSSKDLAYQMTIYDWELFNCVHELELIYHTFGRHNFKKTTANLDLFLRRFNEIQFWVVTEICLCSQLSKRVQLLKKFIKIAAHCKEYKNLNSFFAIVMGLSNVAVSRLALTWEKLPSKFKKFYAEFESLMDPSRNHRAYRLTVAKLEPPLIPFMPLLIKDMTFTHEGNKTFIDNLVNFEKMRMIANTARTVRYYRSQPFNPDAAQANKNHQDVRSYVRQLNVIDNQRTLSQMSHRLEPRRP

activation, inactive:
COc1cc(OC)c(C(C)=O)c(O)c1C -20.6%
N#CCCn1c(=O)c(-c2ccc(Cl)cc2)nc2cnc(Oc3cccc(Cl)c3)nc21 -3.14%
CC1(C)Oc2ccc(C#N)cc2[C@@H](N2CCCC2=O)[C@@H]1O -15.4% and -7.61%
Cc1cc(O)c(C=O)c2c1C(=O)Oc1c(C)c(O)c3c(c1O2)C(O)OC3=O (stereo not drawn) -3%
CN1C(C)(C)CCCC1(C)C -13.7%
O=c1[nH]c(=O)n(C2CC(O)C(CO)O2)cc1C(F)(F)F (stereo not drawn) -12.7%
CCCCc1c(C)[nH]c2c(OC)cccc2c1=S -30.9%
COc1ccc(CNc2ccnc(-c3ccc(C(=O)N(C)C)cc3)n2)c(OC)c1 -11%
N[C@@H](CCC(=O)N[C@H](CSN=O)C(=O)NCC(=O)O)C(=O)O -20.5%
C[C@@H]1C[C@H]2[C@@H]3CCC4=CC(=O)C=C[C@]4(C)[C@@]3(F)[C@@H](O)C[C@]2(C)[C@@]1(O)C(=O)COC(=O)c1cccc(S(=O)(=O)O)c1 -0.79%
CC1C(=O)OC2C(O)C34C5CC(C(C)(C)C)C36C(OC(=O)C6O)OC4(C(=O)O5)C12O (stereo not drawn) -6.95%
C[N+](C)(C)CCCCCC[N+](C)(C)C -5.69% [middle of 4 runs]
CC[N+](C)(C)Cc1ccccc1Br 6.25%
CCCCCCCCc1ccc(-c2ccc(C(=O)O)cc2)cc1 -26%
COc1ccc(C(=O)NCC2Cc3cc(F)cc(-c4cncnc4)c3O2)cc1 (stereo not drawn) -9.67%
Cc1noc(C)c1-c1nc(N(C)C)c2ccccc2n1 -15.6%
OCc1ccccc1O[C@H]1OC(CO)C(O)C(O)C1O (stereo partly drawn) -3.38%
Cc1cc(C)c(C(=O)NCc2nc(-c3cccc(NC(=O)C4CCCN(C)C4)c3)oc2C)[nH]1 (stereo not drawn) -4.75%
CC(C)c1nc(C(=O)N2CCOc3ccc(CN4CCN(c5ccccn5)CC4)cc3C2)cs1 -14.9%
CCOC(=O)C[C@H]1c2ccc(C(F)(F)F)cc2S(=O)(=O)N1Cc1ccccc1 -13.1%
COc1ccccc1CNc1cc(-c2c(C)noc2C)ncn1 0.851%
O=c1ccc2ccc(O)cc2o1 6.84%
COc1cccc(Cn2c(=O)c(-c3cccs3)nc3cnc(N4CCNCC4)nc32)c1 9.89%
N#Cc1cccc(NC(=O)N2CCC3(CC2)CCN(C(=O)c2cccc(F)c2)CC3)c1 -11.6%
COc1ccc([C@@H]2CC(=O)c3c(O)cc(O[C@@H]4O[C@H](CO[C@@H]5O[C@@H](C)[C@H](O)[C@@H](O)[C@H]5O)[C@@H](O)[C@H](O)[C@H]4O)cc3O2)cc1O -25.8%
O=c1c(-c2ccccc2)nc2cnc(Nc3ccccc3)nc2n1Cc1cccs1 -3.83%
N#CCCn1c(=O)cnc2cnc(Nc3ccccc3)nc21 -27.3%
Cc1nc(C(=O)N(Cc2cc3ccc(F)cc3nc2N2CCC(O)CC2)CC2CCCO2)cs1 (stereo not drawn) -5.39%
CNc1ccc(/C=C/c2ccccc2)cc1 -9.94%
COc1c2ccoc2c(OC)c2oc(=O)ccc12 -27.4%
COc1cc(S(C)=O)ccc1-c1nc2ncccc2[nH]1 (stereo not drawn) -22.9%
CCC1Nc2cc(Cl)c(S(N)(=O)=O)cc2S(=O)(=O)N1 (stereo not drawn) -18.9%
O=C(NCCO)c1cn(C2CCN(Cc3c(F)cccc3Cl)CC2)nn1 -16.3%
CN1CCN(c2nc(-c3cccnc3)nc3ccccc23)CC1 -3.67%
Cn1cccc1C(=O)N1CCC2(CC1)CN(C(c1ccccc1)c1ccccc1)C2 15.1%
CC(N)=NCCCC[C@H](N)C(=O)O -8.52%
C/C(=C\COc1cc(=O)[nH]c2ccccc12)CCC(O)C(C)(C)O (stereo not drawn) 6.22% and -2.51%
CCN(Cc1ccncc1)Cc1ccc2c(c1)CN(C(=O)c1ccc(C)cc1)CCO2 0.871%
O=c1c(-c2cccc(F)c2)nc2cncnc2n1C1CC1 0.67%
COc1cc2c(cc1O)CCC1C2CC[C@@]2(C)C1CC[C@@H]2O (stereo partly drawn) -11.6%
O=C(O)c1cc(N=Nc2ccc(O)c(C(=O)O)c2)ccc1O -3.97%
COc1cc(-c2noc(C)c2-c2ccc3[nH]ccc3c2)cc(OC)c1OC -26.3%
COc1ccc2c(c1OC)C(Cc1ccccc1)N1CCc3cc4c(cc3C1C2)OCO4 (stereo not drawn) 13.1%
COc1cc2cc(Oc3ccc4ccc(=O)oc4c3)c(=O)oc2cc1O 29.1%
CC(C)(C(=O)O)c1ccc(C(O)CCCN2CCC(C(O)(c3ccccc3)c3ccccc3)CC2)cc1 (stereo not drawn) 0.799% and -3.95% and -4.53%
CN(C)c1ncc2nc(-c3ccccc3)c(=O)n(C3CC3)c2n1 5.49%
CN1CCN(c2ncnc3ccc(-c4ccoc4)cc23)CC1 -14.3%
COc1ccc(-n2c(=O)c(C)nc3cnc(Oc4ccccc4)nc32)cc1 -3.08%
NS(=O)(=O)c1cc(C(=O)O)cc(N2CCCC2)c1Oc1ccccc1 -16.4%
Cc1oc(-c2ccccc2NC(=O)c2ccsc2)nc1CN(C)CC1CC=CCC1 (stereo not drawn) -9.38%
CN(C)CCCN1c2ccccc2Sc2ccccc21 8.87% and -16.3% and -0.866%
CCCCS(=N)(=O)CC[C@H](N)C(=O)O (stereo partly drawn) -20.9%
NC(Cc1ccc(Cl)cc1)C(=O)O (stereo not drawn) 9.73% and -14.7%
COc1ccc(CNC(=O)[C@@H]2CC=C[C@@H]3CCN(Cc4ccc(Cl)c(Cl)c4)C(=O)[C@@H]32)cc1 -20.5%
CS(=O)(=O)Nc1cccc(-c2nc(Nc3ccncc3)c3ccccc3n2)c1 9.07%
c1cncc(CNc2nc(-c3ccoc3)nc3ccccc23)c1 -14.6%
O=C(OCCO)c1ccccc1O 0.748%
CN(C)C(=O)c1ccc(-c2nc(-n3ccnc3)c3ccccc3n2)cc1 3.41%
Cn1cc(-c2nc3cnc(N4CCNCC4)nc3n(-c3ccccc3)c2=O)c2ccccc21 0.0217%
CN1CCN(c2ncc3nc(-c4ccc(Cl)cc4)c(=O)n(-c4ccccc4)c3n2)CC1 -8.91%
COc1ccc2c(=O)ccoc2c1 -2.89%
Cc1nnc(SCC2=C(C(=O)O)N3C(=O)C(NC(=O)Cn4cnnn4)[C@@H]3SC2)s1 (stereo partly drawn) 3.96%
Cc1nc2cnc(N3CCNCC3)nc2n(C2CC2)c1=O -14.5%
O=C(O)COc1ccc(OCCNC[C@H](O)COc2ccccc2)cc1 -10.8%
C=CC(C1=CC(=O)C=CC1=O)c1ccccc1 (stereo not drawn) 4.15%
CN1CCC(=O)N([C@H](CSc2ccccc2)c2ccccc2)CC1 -20.8%
O=C/C=C/c1ccc(O)cc1 0.51%
Cc1cnc(CNc2ncncc2-c2ccoc2)cn1 8.26%
CC(=O)Nc1ccccc1 -10% and 6.06%
COc1ccccc1-c1nccc(N2CCN(C)CC2)n1 -7.07%
CCOC(=O)C[C@H]1c2ccc(C(F)(F)F)cc2S(=O)(=O)N1C(C)C -28.9%
CCCN1C[C@H](CSC)C[C@@H]2c3cccc4[nH]cc(c34)C[C@H]21 0.155% and 15% and -1.55%
CO[C@H]1[C@H](NC(=O)C(C)C)c2ccccc2C12CCN(Cc1cnc(N(C)C)s1)CC2 3.02%
CCCCCCCCCCCCCCCCN -3.45%
COC(=O)C[C@H](NC(=O)[C@H](C)NC(=O)[C@@H](NC(=O)OCc1ccccc1)C(C)C)C(=O)CF (Cbz-Val-Ala-Asp(OMe)-CH2F) -9.25%
C=C[C@](C)(O)CCC1C(=C)CC(O)C2C(C)(C)CCCC12C (stereo partly drawn) -14.7%
O=C1CCC(O)CCN1CCSc1ccccc1 (stereo not drawn) -19.1%
CC(C)(C)C(=O)Oc1ccc(S(=O)(=O)Nc2ccccc2C(=O)NCC(=O)O)cc1 -6.15%
CC(C)Cc1nc2cc(NS(=O)(=O)N(C)C)cc(C(=O)N3CC4(C)CC3CC(C)(C)C4)c2n1C (stereo not drawn) -8.33%
CSc1ccc2c(c1)C(N1CCN(C)CC1)Cc1ccccc1S2 (stereo not drawn) 2.16% and 3.02% and -16.7%
C[C@H]1COc2c(C3(N)CC3)c(F)cc3c(=O)c(C(=O)O)cn1c23 2.26%
CC(C(=O)O)c1ccc2c(c1)Cc1cccnc1O2 (stereo not drawn) -18.8%
COc1ccccc1-c1ccnc(-n2ncc(C(=O)NCC3(N4CCOCC4)CCCC3)c2C)n1 -4.2%
O=c1cnc2cnc(N3CCNCC3)nc2n1Cc1cccs1 -7.52%
COCCn1c(=O)c(-c2cccc(C#N)c2)nc2cnc(Oc3ccccc3)nc21 8.13%
CCCCNC(=O)c1sc2ncnc(NCC3CCCO3)c2c1C (stereo not drawn) -4.18%
COCCn1c(=O)c(-c2cc(F)cc(F)c2)nc2cnc(OC)nc21 -8.57%
C=CC[n+]1cccc2cc(Br)ccc21 -18.5%
